From the supplement of paper PMC10369915
Some of the results follow. Cut-off read from the data, not from the text of the source: active = 3.2 or more and inactive = the rest. The signal is at background level for most entries.

B1: FBP1_Y216_R218K (peptide)
chain: SLNEGYAKDFD
B2: FBXO3_Y223_V221I (peptide)
chain: KNEIFYQCPDQ
B3: FCRL3_Y662 (peptide)
chain: DSNPIYSQIWS
B4: FCRL3_Y662_P660L (peptide)
chain: DSNLIYSQIWS
B5: FCRL6_Y239_D244N (peptide)
chain: SPPILYSFYLN
B6: FDPS_Y388 (peptide)
chain: YEEDSYSHIMA
B7: FDPS_Y388_I391V_YF (peptide)
chain: FEEDSYSHVMA
B8: FER_Y461 (peptide)
chain: AEQDWYHGAIP
B9: FER_Y461_W460C (peptide)
chain: AEQDCYHGAIP
B10: FES_Y156 (peptide)
chain: QAKRKYQEASK
B11: FES_Y156_A159V (peptide)
chain: QAKRKYQEVSK
B12: FGA_Y127_R129P (peptide)
chain: NRDNTYNPVSE
B13: FGB_Y266 (peptide)
chain: SSVKPYRVYCD
B14: FGB_Y266_YF (peptide)
chain: SSVKPYRVFCD
B15: FGB_Y269_P265L (peptide)
chain: KLYRVYCDMNT
B16: FGB_Y269_P265L_YF (peptide)
chain: KLFRVYCDMNT
B17: FGB_Y368 (peptide)
chain: NEANKYQISVN
B18: FGB_Y408_T407K (peptide)
chain: MFFSKYDRDND
B19: FGB_Y475 (peptide)
chain: WKGSWYSMRKM

Target: SHP2 C-SH2 domain E139D
Assay: enrichment score (SH2-bound / input frequency) (ratio); bacterial display of known human phosphotyrosine sites (pTyr-Var adds point mutants) read by sequencing; higher = stronger binding; tyrosines were phosphorylated by kinases first
Conditions: peptide library: pTyr-Var
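Note: displayed peptides selected on beads carrying the immobilized SH2 domain, with library peptides lacking any tyrosine serving as negative controls.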

Enrichment score, inactive:
B1 0.472
B2 0.706
B3 0.996
B4 0.948
B5 1.56
B6 0.499
B7 0.748
B8 0.79
B9 1.08
B10 0.411
B11 0.393
B12 0.564
B13 0.76
B14 0.837
B15 0.823
B16 0.954
B17 0.66
B18 1.26
B19 2.71

Target: SHP2 C-SH2 domain wild-type
Assay: as above
Conditions: peptide library: pTyr-Var

Enrichment score, inactive:
B1 0.453
B2 0.867
B3 0.897
B4 0.928
B5 1.74
B6 0.441
B7 0.785
B8 0.708
B9 1.23
B10 0.5
B11 0.65
B12 0.415
B13 0.601
B14 0.882
B15 1.03
B16 0.943
B17 0.702
B18 1.15
B19 2.33

Target: SHP2 N-SH2 domain L43F
Assay: as above
Conditions: peptide library: pTyr-Var

Enrichment score, inactive:
B1 0.525
B2 0.52
B3 0.662
B4 0.905
B5 1.58
B6 0.494
B7 0.596
B8 0.914
B9 1.03
B10 0.411
B11 0.555
B12 0.456
B13 0.721
B14 0.761
B15 0.901
B16 0.838
B17 0.667
B18 1.19
B19 2.26

Target: SHP2 N-SH2 domain T42A
Assay: as above
Conditions: peptide library: pTyr-Var

Enrichment score, inactive:
B1 0.54
B2 0.693
B3 0.98
B4 0.974
B5 1.73
B6 0.419
B7 0.68
B8 0.714
B9 1.1
B10 0.522
B11 0.44
B12 0.396
B13 0.687
B14 0.537
B15 0.912
B16 0.861
B17 0.647
B18 1.09
B19 2.58

Target: SHP2 N-SH2 domain T52S
Assay: as above
Conditions: peptide library: pTyr-Var

Enrichment score, inactive:
B1 0.548
B2 0.764
B3 1.05
B4 0.971
B5 1.7
B6 0.476
B7 0.633
B8 0.715
B9 1.42
B10 0.426
B11 0.364
B12 0.502
B13 0.695
B14 0.742
B15 0.901
B16 0.816
B17 0.518
B18 1.2
B19 2.23

Target: SHP2 N-SH2 domain wild-type
Assay: as above
Conditions: peptide library: pTyr-Var

Enrichment score, inactive:
B1 0.458
B2 0.777
B3 0.932
B4 1.03
B5 1.65
B6 0.508
B7 0.864
B8 0.82
B9 1.12
B10 0.551
B11 0.455
B12 0.385
B13 0.741
B14 0.673
B15 1.12
B16 1.03
B17 0.918
B18 1.18
B19 2.3
